Test results taken from the supplement of paper PMC8728848.
Some of the results follow.

Legend:
Assay in all cases: glycan array binding signal (z-score within array); higher = stronger binding
Conditions in all cases: glycan notation: IUPAC condensed, linker removed
[1] = target: Gal(a1-4)Gal(b1-4)GlcNAc(b1-3)Gal(b1-4)Glc
Summary of the method: (§1)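 The binding signal is a Z-score computed within each array and averaged over linkers. Arrays of the same protein sequence at different concentrations or buffers were also averaged together. Data originate from 3228 arrays in the Consortium for Functional Glycomics database, kept only where the protein sequence was available.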

Gal(a1-4)GlcNAc = target: Gal(a1-4)GlcNAc
Summary of the method: as §1

Gal(a1-6)Glc = target: Gal(a1-6)Glc
Summary of the method: as §1

Gal(b1-2)Gal = target: Gal(b1-2)Gal
Summary of the method: as §1

Gal(b1-3)Gal = target: Gal(b1-3)Gal
Summary of the method: as §1

Gal(b1-3)Gal(b1-4)GlcNAc = target: Gal(b1-3)Gal(b1-4)GlcNAc
Summary of the method: as §1

Gal(b1-3)GalNAc = target: Gal(b1-3)GalNAc
Summary of the method: as §1

[2] = target: Gal(b1-3)GalNAc(a1-3)[Fuc(a1-2)]Gal(b1-4)Glc
Summary of the method: as §1

[3] = target: Gal(b1-3)GalNAc(a1-3)[Fuc(a1-2)]Gal(b1-4)GlcNAc
Summary of the method: as §1

Gal(b1-3)GalNAc(b1-3)Gal = target: Gal(b1-3)GalNAc(b1-3)Gal
Summary of the method: as §1

[4] = target: Gal(b1-3)GalNAc(b1-3)Gal(a1-4)Gal(b1-4)Glc
Summary of the method: as §1

[5] = target: Gal(b1-3)GalNAc(b1-4)Gal(b1-4)Glc
Summary of the method: as §1

[6] = target: Gal(b1-3)GalNAc(b1-4)[Neu5Ac(a2-3)]Gal(b1-4)Glc
Summary of the method: as §1

Gal(b1-3)GlcNAc = target: Gal(b1-3)GlcNAc
Summary of the method: as §1

[7] = target: Gal(b1-3)GlcNAc(a1-3)Gal(b1-4)GlcNAc
Summary of the method: as §1

[8] = target: Gal(b1-3)GlcNAc(a1-6)Gal(b1-4)GlcNAc
Summary of the method: as §1

Gal(b1-3)GlcNAc(b1-2)Man = target: Gal(b1-3)GlcNAc(b1-2)Man
Summary of the method: as §1

[9] = target: Gal(b1-3)GlcNAc(b1-2)Man(a1-3)[Gal(b1-3)GlcNAc(b1-2)Man(a1-6)]Man(b1-4)GlcNAc(b1-4)GlcNAc
Summary of the method: as §1

[10] = target: Gal(b1-3)GlcNAc(b1-2)Man(a1-3)[Gal(b1-3)GlcNAc(b1-2)Man(a1-6)]Man(b1-4)GlcNAc(b1-4)[Fuc(a1-6)]GlcNAc
Summary of the method: as §1

[11] = target: Gal(b1-3)GlcNAc(b1-2)Man(a1-3)[GlcNAc(b1-4)][Gal(b1-3)GlcNAc(b1-2)Man(a1-6)]Man(b1-4)GlcNAc(b1-4)GlcNAc
Summary of the method: as §1

[12] = target: Gal(b1-3)GlcNAc(b1-2)[Gal(b1-3)GlcNAc(b1-6)]Man(a1-6)[Gal(b1-3)GlcNAc(b1-2)Man(a1-3)]Man(b1-4)GlcNAc(b1-4)GlcNAc
Summary of the method: as §1

[13] = target: Gal(b1-3)GlcNAc(b1-3)Gal(b1-3)GlcNAc
Summary of the method: as §1

[14] = target: Gal(b1-3)GlcNAc(b1-3)Gal(b1-4)Glc
Summary of the method: as §1

[15] = target: Gal(b1-3)GlcNAc(b1-3)Gal(b1-4)GlcNAc
Summary of the method: as §1

[16] = target: Gal(b1-3)GlcNAc(b1-3)Gal(b1-4)GlcNAc(b1-2)Man(a1-3)[Gal(b1-3)GlcNAc(b1-3)Gal(b1-4)GlcNAc(b1-2)Man(a1-6)]Man(b1-4)GlcNAc(b1-4)GlcNAc
Summary of the method: as §1

[17] = target: Gal(b1-3)GlcNAc(b1-3)Gal(b1-4)GlcNAc(b1-2)[Gal(b1-3)GlcNAc(b1-3)Gal(b1-4)GlcNAc(b1-6)]Man(a1-6)[Gal(b1-3)GlcNAc(b1-3)Gal(b1-4)GlcNAc(b1-2)Man(a1-3)]Man(b1-4)GlcNAc(b1-4)[Fuc(a1-6)]GlcNAc
Summary of the method: as §1

[18] = target: Gal(b1-3)GlcNAc(b1-3)Gal(b1-4)GlcNAc(b1-3)Gal(b1-4)GlcNAc(b1-2)[Gal(b1-3)GlcNAc(b1-3)Gal(b1-4)GlcNAc(b1-3)Gal(b1-4)GlcNAc(b1-6)]Man(a1-6)[Gal(b1-3)GlcNAc(b1-3)Gal(b1-4)GlcNAc(b1-3)Gal(b1-4)GlcNAc(b1-2)Man(a1-3)]Man(b1-4)GlcNAc(b1-4)[Fuc(a1-6)]GlcNAc
Summary of the method: as §1

[19] = target: Gal(b1-3)GlcNAc(b1-3)Gal(b1-4)GlcNAc(b1-6)[Gal(b1-3)GlcNAc(b1-3)]Gal(b1-4)Glc
Summary of the method: as §1

[20] = target: Gal(b1-3)GlcNAc(b1-3)Gal(b1-4)[Fuc(a1-3)]GlcNAc
Summary of the method: as §1

[21] = target: Gal(b1-3)GlcNAc(b1-3)Gal(b1-4)[Fuc(a1-3)]GlcNAc(b1-6)[Gal(b1-3)GlcNAc(b1-3)]Gal(b1-4)Glc
Summary of the method: as §1

[22] = target: Gal(b1-3)GlcNAc(b1-3)GalNAc
Summary of the method: as §1

[23] = target: Gal(b1-3)GlcNAc(b1-6)Gal(b1-4)GlcNAc
Summary of the method: as §1

[24] = target: Gal(b1-3)GlcNAc(b1-6)GalNAc
Summary of the method: as §1

[25] = target: Gal(b1-3)GlcNAc(b1-6)[Gal(b1-3)]GalNAc
Summary of the method: as §1

Gal(b1-3)GlcNAc6S = target: Gal(b1-3)GlcNAc6S
Summary of the method: as §1

[26] = target: Gal(b1-3)[Fuc(a1-4)]GlcNAc
Summary of the method: as §1

[27] = target: Gal(b1-3)[Fuc(a1-4)]GlcNAc(b1-2)Man
Summary of the method: as §1

[28] = target: Gal(b1-3)[Fuc(a1-4)]GlcNAc(b1-2)Man(a1-3)[Gal(b1-3)[Fuc(a1-4)]GlcNAc(b1-2)Man(a1-6)]Man(b1-4)GlcNAc(b1-4)[Fuc(a1-6)]GlcNAc
Summary of the method: as §1

[29] = target: Gal(b1-3)[Fuc(a1-4)]GlcNAc(b1-3)Gal(b1-3)[Fuc(a1-4)]GlcNAc
Summary of the method: as §1

[30] = target: Gal(b1-3)[Fuc(a1-4)]GlcNAc(b1-3)Gal(b1-4)GlcNAc
Summary of the method: as §1

[31] = target: Gal(b1-3)[Fuc(a1-4)]GlcNAc(b1-3)Gal(b1-4)[Fuc(a1-3)]GlcNAc
Summary of the method: as §1

[32] = target: Gal(b1-3)[Fuc(a1-4)]GlcNAc(b1-6)GalNAc
Summary of the method: as §1

[33] = target: Gal(b1-3)[GlcNAc(b1-6)]GalNAc
Summary of the method: as §1

[34] = target: Gal(b1-3)[Neu5Ac(a2-6)]GalNAc
Summary of the method: as §1

[35] = target: Gal(b1-3)[Neu5Ac(a2-6)]GlcNAc(b1-4)Gal(b1-4)Glc
Summary of the method: as §1

B1: NPA (Narcissus pseudonarcissus), C0HM45 (protein)
chain: DNILYSGETLSPGEFLNNGRYVFIMQEDCNLVLYDVDKPIWATNTGGLDRRCHLSMQSDGNLVVYSPRNNPIWASNTGGENGNYVCVLQKDRNVVIYGTARWATGTNIH
glycan array binding signal (z-score) [1]: -0.145 | glycan array binding signal (z-score) (Gal(a1-4)GlcNAc): -0.152 | glycan array binding signal (z-score) (Gal(a1-6)Glc): -0.147 | glycan array binding signal (z-score) (Gal(b1-2)Gal): -0.127 | glycan array binding signal (z-score) (Gal(b1-3)Gal): -0.156 | glycan array binding signal (z-score) (Gal(b1-3)Gal(b1-4)GlcNAc): -0.133 | glycan array binding signal (z-score) (Gal(b1-3)GalNAc): -0.148 | glycan array binding signal (z-score) [2]: -0.14 | glycan array binding signal (z-score) [3]: -0.146 | glycan array binding signal (z-score) (Gal(b1-3)GalNAc(b1-3)Gal): -0.144 | glycan array binding signal (z-score) [4]: -0.135 | glycan array binding signal (z-score) [5]: -0.142 | glycan array binding signal (z-score) [6]: -0.15 | glycan array binding signal (z-score) (Gal(b1-3)GlcNAc): -0.149 | glycan array binding signal (z-score) [7]: -0.157 | glycan array binding signal (z-score) [8]: -0.155 | glycan array binding signal (z-score) (Gal(b1-3)GlcNAc(b1-2)Man): -0.121 | glycan array binding signal (z-score) [9]: 0.278 | glycan array binding signal (z-score) [10]: -0.108 | glycan array binding signal (z-score) [11]: 0.233 | glycan array binding signal (z-score) [12]: 0.134 | glycan array binding signal (z-score) [13]: -0.148 | glycan array binding signal (z-score) [14]: -0.155 | glycan array binding signal (z-score) [15]: -0.157 | glycan array binding signal (z-score) [16]: 0.082 | glycan array binding signal (z-score) [17]: 1.12 | glycan array binding signal (z-score) [18]: 1.17 | glycan array binding signal (z-score) [19]: -0.151 | glycan array binding signal (z-score) [20]: -0.133 | glycan array binding signal (z-score) [21]: -0.142 | glycan array binding signal (z-score) [22]: -0.145 | glycan array binding signal (z-score) [23]: -0.155 | glycan array binding signal (z-score) [24]: -0.144 | glycan array binding signal (z-score) [25]: -0.051 | glycan array binding signal (z-score) (Gal(b1-3)GlcNAc6S): -0.145 | glycan array binding signal (z-score) [26]: -0.15 | glycan array binding signal (z-score) [27]: -0.137 | glycan array binding signal (z-score) [28]: 1.08 | glycan array binding signal (z-score) [29]: -0.124 | glycan array binding signal (z-score) [30]: -0.197 | glycan array binding signal (z-score) [31]: -0.147 | glycan array binding signal (z-score) [32]: -0.122 | glycan array binding signal (z-score) [33]: -0.144 | glycan array binding signal (z-score) [34]: -0.15 | glycan array binding signal (z-score) [35]: -0.144
